# The supplement of paper PMC12217912
# This is one part of the list. Sequences were assembled here from the parent chain. Values near 0.05 are background.
# B1: TEV protease; numbered along this chain (parent)
# chain: MGESLFKGPRDYNPISSSICHLTNESDGHTTSLYGIGFGPFIITNKHLFRRNNGTLVVQSLHGVFKVKDTTTLQQHLVDGRDMIIIRMPKDFPPFPQKLKFREPQREERICLVTTNFQTKSMSSMVSDTSCTFPSGDGIFWKHWIQTKDGQCGSPLVSTRDGFIVGIHSASNFTNTNNYFTSVPKNFMELLTNQEAQQWVSGWRLNADSVLWGGHKVFMVKPEEPFQPVKEATQL
# Variants of: B1
# Test: raw area under fraction-flipped curve 0-4 h after induction (AUC4h, not background-subtracted), DNA-recorder readout of cleavage of the substrate (dimensionless); higher = more cleavage of the substrate by the protease variant
# Settings: temperature: 34 °C; time window: 0-4 h after rhamnose induction
# 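Further: Bxb1 expression induced with 0.2% (w/v) L-rhamnose at OD600 near 0.5, cultures sampled hourly, flipped fraction per protease–substrate barcode pair counted by paired-end Illumina sequencing.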
Variant,area with substrate ECLYFQS,area with substrate EDLYFQS,area with substrate EELYFQS,area with substrate EHLYFQS,area with substrate EKLYFQS,area with substrate EPLYFQS,area with substrate ERLYFQS,area with substrate ESLYFQS,area with substrate ETLYFQS,area with substrate EVLYFQS
S171R,0.0793,0.136,0.11,0.0959,0.0686,0.0947,0.0945,0.0935,0.106,0.0775
R51D,,,0.0965,0.104,,0.128,0.125,0.127,,
A196P,0.0755,0.117,,,,0.135,0.0961,0.0834,,0.0849
G63P,,0.0799,0.065,0.0817,0.0713,,0.0589,0.073,0.082,0.0664
N177W,0.0656,0.0752,,,0.0669,,0.062,0.0605,,
T72L,,0.112,,,,,,,,0.12
N172D,0.0846,0.0916,,,,0.0958,,0.0575,0.0951,
S201M,,0.114,,,,0.13,0.0938,0.0918,,0.0895
S201T,0.113,,0.0884,,,,0.109,0.15,,
A232I,,0.116,0.153,,,,0.114,0.101,,
M188F,,0.143,,,,,,0.0045,,0.105
M188K,0.104,,0.086,,0.0775,0.135,,0.111,,0.0989
G214T,0.0831,0.119,0.102,0.096,0.0725,0.129,,0.0561,,0.0753
L61I,,0.121,0.121,0.125,,,0.106,0.156,0.126,
S130F,,,0.102,0.0944,,,,0.0808,,0.0873
W203F,0.0697,,0.0942,,,,,,,
W203Q,0.0562,,,0.0571,0.0687,,,0.0727,,0.0688
Q75L,,0.155,0.126,,,,,,,
S26I,,,0.082,0.0582,0.0913,,0.0758,,0.0658,0.0653

# Same assay, conditions: temperature: 34 °C; time window: 0-4 h after rhamnose induction
Variant,area with substrate EGLYFQS,area with substrate EILYFQS,area with substrate EWLYFQS,area with substrate EYLYFQS,area with substrate EFLYFQS,area with substrate ELLYFQS,area with substrate EMLYFQS,area with substrate EQLYFQS
R51D,0.111,0.0903,0.0976,0.0808,,,,
A196P,0.0689,,0.0961,,0.0985,0.032,0.0998,
G63P,0.0685,0.0531,0.0416,0.0628,,,0.0861,0.0604
N177W,,,,0.0818,,0.0501,0.0789,0.0883
T72L,0.0764,0.0661,0.146,,,,,
N172D,0.087,,,,,0.0777,,0.0809
S201M,0.0704,0.09,0.0796,,,0.113,0.123,0.106
S201T,0.154,0.12,0.134,,,0.114,0.116,
A232I,,,,,0.115,0.0953,,0.0982
M188F,,0.0861,,0.126,,,0.0807,
M188K,0.0556,0.103,,,0.093,,0.105,0.141
G214T,,,0.0752,,,0.0986,,
L61I,,0.0889,0.096,,,,,0.112
S130F,,0.061,,,0.0978,0.0583,,0.0785
W203F,,0.0981,,,,,,0.0747
W203Q,,0.04,,,,,,0.0708
S26I,0.0903,0.04,0.0737,0.0446,,,0.0825,0.0618
